Over roughly 4,100 sequences, “relative CpG methylation activity (normalised to average over all NNNCGNNN flanks)” has its median near 0.94; the highest 2% begin near 1.9. The list shows a part of the results.
target: DNMT3B catalytic domain (mouse) (UniProt O88509); experiment: relative CpG methylation activity (normalised to average over all NNNCGNNN flanks) (relative (1 = mean)); higher = more methylation of the central CpG; conditions: system: in vitro, murine catalytic domain; CpG state: hemimethylated substrate pool; residues: 558-859
Chain of UniProt O88509 (O88509 558-859): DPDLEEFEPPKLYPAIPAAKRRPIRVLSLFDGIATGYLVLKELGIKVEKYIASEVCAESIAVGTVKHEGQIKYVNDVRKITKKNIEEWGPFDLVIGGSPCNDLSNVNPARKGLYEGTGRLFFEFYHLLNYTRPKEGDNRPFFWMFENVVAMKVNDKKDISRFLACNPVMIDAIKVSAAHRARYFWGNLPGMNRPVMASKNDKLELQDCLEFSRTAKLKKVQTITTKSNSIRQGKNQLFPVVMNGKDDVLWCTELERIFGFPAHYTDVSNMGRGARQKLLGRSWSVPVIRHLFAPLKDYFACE
Procedure: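 Deep enzymology: a pool of dsDNA substrates with a central CpG flanked by 10 random nucleotides on each side was methylated by the murine DNMT3A or DNMT3B catalytic domain (0.8 mM SAM, 37 °C, 60 min). Methylation was then read out by hairpin ligation, bisulfite conversion and NGS. Values are the average methylation of each NNNCGNNN context (±3 flanks; the outer flanks are random and averaged over), normalised to the overall mean, so 1 = average activity.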

Sequence | relative CpG methylation activity
CCCCGCAA | 0.568
GGCCGCCT | 0.503
CCTCGCCC | 0.848
AAGCGGGA | 0.688
CACCGAGA | 1.58
CCACGAAT | 1.3
AACCGCAC | 0.398
GCCCGCCA | 0.601
ACCCGCAT | 0.431
CCTCGGTG | 1.04
TACCGAGT | 1.32
GGACGGAC | 1.09
CGCCGCTA | 0.437
TTACGTCT | 1.64
TGTCGAAG | 1.15
GGACGTGC | 0.639
CCTCGCAG | 0.493
TCCCGATG | 1.39
CCGCGGGC | 1.53
CCACGACT | 1.36
GCCCGGAT | 0.786
CTCCGTCG | 0.982
GAGCGATT | 0.905
GGACGCAA | 0.45
GGGCGTTG | 0.169

Sequence | relative CpG methylation activity
ATGCGTCC | 1.33
AGACGATC | 1.75
CTGCGTTC | 1.2
TAACGTAG | 0.754
CACCGACT | 1.12
CCCCGGGA | 1.45
CCTCGTCC | 1.07
TGACGGGT | 1.07
TAACGACC | 1.66
TAGCGCAT | 0.387
TGTCGACG | 0.902
GACCGAGG | 1.05
AAGCGAAA | 0.997
CGGCGATG | 0.694
TGGCGCCG | 0.638
AACCGGCC | 1.1
TAACGTCA | 1.32
AGCCGCCT | 0.423
TGACGCTG | 0.83
GGACGGAA | 0.833
CCTCGTAC | 1.16
GAACGCCT | 1.17
CGTCGATG | 1.16
GTCCGTAT | 0.661
TACCGATG | 1.21

Sequence | relative CpG methylation activity
AGACGCCT | 1.24
GCACGTCG | 1.05
CGTCGGAG | 0.42
GGGCGCCC | 0.511
GAACGTGA | 0.599
AACCGACC | 0.818
CAACGCAG | 0.792
AGACGTTC | 0.768
ATGCGCCA | 0.894
GACCGCAC | 0.494
TAACGGGA | 1.5
CATCGTAA | 0.366
TACCGGCG | 1.39
AACCGTTA | 0.238
GTGCGCAG | 0.503
AACCGCCG | 0.521
CGCCGTTC | 0.496
GGCCGGTT | 0.611
CAGCGCTA | 0.431
TCACGGAT | 1.1
CCTCGAAG | 1.07
GGGCGACT | 0.636
ACCCGGCC | 1.51
GCGCGCGC | 0.669
GATCGACT | 1.14

Sequence | relative CpG methylation activity
CTCCGGGT | 1.8
AGTCGCAC | 0.509
AGCCGCCC | 0.384
CATCGTAG | 0.429
AGTCGGCT | 1.79
TCCCGAGA | 1.74
GGACGTTG | 0.384
CTGCGGAT | 1.06
GAGCGAGT | 0.728
ACCCGGTG | 0.976
GGGCGCGT | 0.42
CGACGAAA | 1.04
TCTCGCAC | 0.805
ACGCGGAA | 0.651
CTTCGTGG | 0.188
CCCCGTCC | 1.32
TGACGTGT | 0.366
TTGCGACA | 1.15
GGTCGTCC | 0.737
GGCCGCTA | 0.382
GGTCGGTT | 1.03
ACCCGATC | 1.51
GCACGCGC | 1.04
CTGCGTCA | 0.944
CACCGGCA | 1.37

Sequence | relative CpG methylation activity
AGGCGGAC | 0.386
AGCCGAAA | 0.798
GTTCGACC | 1.32
CCTCGCTC | 1.01
AATCGACT | 1.44
ATACGTGC | 1.15
TTCCGTTG | 0.707
ACACGCGC | 1.26
AATCGTAG | 0.186
TAGCGCAG | 0.415
ACCCGCTA | 0.814
ACTCGAGA | 1.58
CTTCGTTT | 0.871
TCGCGAAC | 1.17
ACTCGGCG | 1.6
CGTCGTTC | 0.4
TACCGGTG | 0.974
GGGCGGTT | 0.79
CATCGATC | 1.81
TTTCGCGG | 0.884
TCGCGATC | 1.24
GGGCGCTT | 0.417
CCGCGGCA | 1.33
TCGCGGAT | 0.424
AAACGCCA | 1.4

Sequence | relative CpG methylation activity
TCGCGTCA | 0.847
TAACGAGG | 1.81
TGACGCAT | 0.608
TGTCGTGG | 0.105
CGGCGTCG | 0.355
GTTCGGGG | 1.24
CCCCGAAG | 1.07
TGGCGGCA | 1.4
ACGCGAGA | 1.31
TCACGATA | 1.76
CCTCGTTT | 0.376
ACTCGTTG | 0.336
TCCCGGAA | 0.933
GTTCGAAA | 1.31
ATACGGAA | 1.32
GGACGCTA | 0.637
GCCCGGTT | 1.26
ATGCGCGC | 0.877
TCCCGGTC | 1.6
GCCCGCTT | 0.882
TGCCGTAT | 0.262
ACACGGTC | 1.64
AGACGGAT | 0.732
GAACGCGA | 0.783
GGTCGACG | 0.963

Sequence | relative CpG methylation activity
GCTCGCAT | 0.481
AGGCGTTA | 0.417
CTGCGCGG | 0.801
AACCGGTT | 0.799
AACCGGGT | 0.787
GCTCGAAT | 1.27
GCTCGTGC | 0.493
CCCCGCTG | 0.869
TTACGTAC | 1.95
CCCCGGCA | 1.72
AGCCGTCT | 0.256
CTCCGATG | 1.67
AGCCGACC | 0.654
ATGCGATG | 1.1
AACCGGTC | 1.09
TTACGTTC | 1.66
CGTCGCCT | 0.833
CGCCGCAC | 0.521
GTACGGGC | 1.63
TTGCGTAG | 1.18
GAGCGTCT | 1.03
AATCGTTG | 0.243
CTACGGCC | 1.96
GTACGATT | 1.75
TGTCGGAC | 0.833

Sequence | relative CpG methylation activity
CCCCGCCT | 1.13
ACCCGAAC | 1.57
TTACGGAC | 1.85
CCACGGGA | 1.42
ATACGTAA | 1.1
TTCCGGCT | 1.61
TTTCGTTG | 0.558
TGACGCAG | 0.63
GGACGTCA | 0.756
GAGCGGAG | 0.444
GGCCGCTC | 0.521
CCGCGTCC | 0.769
CGGCGAAG | 0.694
CGTCGCTG | 0.604
AGACGGCT | 1.81
CTCCGTCT | 1.02
GCTCGCCC | 0.844
GCTCGTAG | 0.266
TGCCGAAG | 0.75
GGCCGGGA | 0.745
CAGCGGGG | 0.909
GGTCGTGT | 0.0468
TGACGTGC | 0.66
AAGCGTGG | 0.419
GTACGAGT | 1.48

Sequence | relative CpG methylation activity
TTACGAAG | 1.79
CAACGAGA | 1.94
CCGCGGTA | 0.965
CAACGAGG | 1.5
GTCCGAGC | 1.63
GTTCGCAT | 0.484
AGCCGGTA | 0.5
TTGCGTAA | 0.853
CCTCGCGC | 0.983
CACCGACA | 1.05
AGACGCGA | 0.772
ACACGCCG | 1.24
GAGCGCAG | 0.296
TCCCGCTA | 0.854
TTACGGGT | 1.83
AAACGATA | 1.81
TTACGCCG | 1.59
TTACGATC | 2.01
CCACGAAC | 1.64
TGCCGGTC | 0.758
GCGCGTGG | 0.526
GTACGATA | 1.73
GCGCGTGC | 0.619
TGTCGCGT | 0.412
ATTCGTCA | 0.607

Sequence | relative CpG methylation activity
ACTCGCAC | 0.58
CCTCGGTT | 1.13
ATCCGGGG | 1.39
TGGCGACA | 0.571
AACCGGGA | 0.901
TTCCGATA | 1.68
CCACGGAT | 0.839
CGGCGATC | 0.966
GTTCGTAA | 0.406
AAACGCGT | 1.19
GCACGACA | 1.19
TTCCGGGG | 1.5
GAACGTTT | 0.687
TCCCGAGG | 1.3
ATTCGTAA | 0.376
ATACGCTG | 1.34
GGACGAGA | 1.5
TGACGGGA | 1.47
ATGCGACT | 1.13
TCCCGCTC | 0.937
ACTCGAGT | 1.2
AGACGGTA | 1.16
GTGCGTAG | 0.761
ACGCGCAC | 0.613
CCACGCAA | 0.675

Sequence | relative CpG methylation activity
ACACGGTA | 1.23
AAACGATG | 1.35
GGCCGTGA | 0.085
GATCGGCT | 1.57
ACTCGGAC | 0.983
TTACGGGC | 2.03
GTTCGTTT | 0.253
GGGCGACG | 0.372
ACACGACG | 1.34
ACGCGCAA | 0.333
AGCCGGGA | 0.667
CAACGTCT | 1.47
CGGCGAAC | 0.831
CTACGAAC | 1.91
TCTCGAAG | 1.03
CGACGTAT | 0.584
CTACGGTA | 1.81
AGGCGGGT | 0.507
GAACGTTG | 0.862
ATTCGTTA | 0.305
GCCCGGTA | 1.3
AAACGAGA | 1.9
TGTCGTTC | 0.524
CCGCGCCA | 0.71
AATCGCTA | 0.608

Sequence | relative CpG methylation activity
GCGCGTTC | 0.746
GACCGAAT | 0.884
CAACGTCA | 1.15
AACCGCGT | 0.161
TCGCGTTC | 0.889
GGACGGTG | 1
TGGCGTGA | 0.0839
ACGCGGTT | 0.772
CAACGTCG | 1.12
GCACGCCT | 1.2
CTGCGCTT | 1.4
TTCCGTAC | 1.61
ATTCGCGA | 0.65
TAGCGATT | 0.857
GACCGCAG | 0.187
GTGCGCAT | 0.69
GGGCGGTG | 0.446
CGCCGGCA | 1.32
TGTCGCAT | 0.323
GGCCGGTA | 0.775
GCACGTCT | 1.1
TTTCGGAA | 0.871
GTGCGTAC | 1.01
CAACGAAC | 1.62
AACCGAAT | 0.909

Sequence | relative CpG methylation activity
GTGCGTTG | 0.688
CTGCGAGC | 1.76
GAACGCGT | 0.967
GTGCGCAC | 0.939
GGTCGCAT | 0.368
CCTCGTCG | 0.85
CTGCGGAC | 1.21
CTGCGTTA | 0.743
CTTCGGCC | 1.79
TTGCGCGC | 0.894
TTCCGCGA | 0.904
GTCCGTAG | 0.397
CGACGCCT | 1.15
GCTCGGGT | 1.14
ATGCGAAA | 1.09
GCACGAGT | 1.4
AGCCGCGC | 0.26
CGCCGATT | 1.26
ACTCGTCG | 0.617
AATCGACA | 1.28
AAACGGTC | 1.78
GGCCGAAA | 0.914
GGGCGTGG | 0.265
TCTCGTTT | 0.417
GGCCGCAC | 0.272

Sequence | relative CpG methylation activity
CTCCGGAA | 1.23
AATCGGCA | 1.74
TCTCGACG | 1.31
CACCGGCC | 1.34
GGCCGCTT | 0.306
GGTCGACT | 1.1
CAACGACG | 1.33
CAACGCCT | 1.59
CTGCGCTC | 0.998
ACGCGTCT | 0.514
AACCGTTG | 0.158
GCACGGGC | 1.25
CAGCGGAC | 0.616
TACCGTGC | 0.483
TGACGATG | 1.02
TCTCGACA | 1.3
TCCCGTAA | 0.418
GCGCGCAG | 0.323
CGACGCAG | 0.407
